In the antibiotic and cytotoxicity screens of Wong et al. (2023) one finds cytotoxicity call and growth inhibition call data, which are given here for nine compounds.

Assay [1] deals with HSkMC (human skeletal muscle cells). The assay can be described thus: cytotoxicity call (relative viability < 0.9). The conditions noted are these: 10 µM.
Assay [2] has as its system HepG2. Kind of assay: cytotoxicity call (relative viability < 0.9). The conditions noted are these: 10 µM.
Assay [3] deals with S. aureus RN4220. The assay can be described thus: growth inhibition call (relative growth <= 0.2). The conditions noted are these: 50 µM.

The other results are listed elsewhere or left out.

With `O=C(NCCCN1CCOCC1)[C@H]1[C@H](CO)[C@H]2Cn3c(cccc3=O)[C@@H]1N2C(=O)C1CCCC1`, the cytotoxicity call in assay [1] and in assay [2] was “inactive” each time. Besides, the growth inhibition call in assay [3] is “inactive”.
`CC(C)NC(=O)Nc1ccc2c(c1)C(=O)N([C@H](C)CO)C[C@@H](C)[C@@H](CN(C)Cc1ccc(Oc3ccccc3)cc1)O2`: the cytotoxicity call in assay [1] and in assay [2] was “inactive” each time. Further, the growth inhibition call in assay [3] was “inactive”.
For the compound `O=C(C[C@H]1C=C[C@H](NC(=O)C2CCC2)[C@H](CO)O1)NCCCN1CCOCC1`, the cytotoxicity call in assay [1] and in assay [2] was “inactive” each time. Besides, the growth inhibition call in assay [3] is “inactive”.
For the compound `Cc1ccc(S(=O)(=O)Nc2ccc3c(c2)C(=O)N([C@H](C)CO)C[C@H](C)[C@@H](CN(C)C(=O)CCC(F)(F)F)OCCCC[C@@H](C)O3)cc1`, the cytotoxicity call in assay [1] and in assay [2] was “inactive” throughout. In addition, the growth inhibition call in assay [3] is “inactive”.
Take `C[C@H]1CCCCO[C@@H](CN(C)Cc2ccncc2)[C@@H](C)CN([C@@H](C)CO)C(=O)c2cc(NC(=O)Nc3ccc(C(F)(F)F)cc3)ccc2O1`: the cytotoxicity call in assay [1] and in assay [2] was “inactive” in each case. Further, the growth inhibition call in assay [3] is “inactive”.
With `C[C@H](CO)N1C[C@H](C)[C@H](CN(C)C(=O)Nc2cccc3ccccc23)Oc2c(NS(=O)(=O)c3ccc(Cl)cc3)cccc2C1=O`, the cytotoxicity call in assay [1] and in assay [2] was “inactive” in each case. In addition, the growth inhibition call in assay [3] was “inactive”.
Regarding `C[C@H](CO)N1C[C@H](C)[C@@H](CN(C)C(=O)NC2CCCCC2)Oc2c(NS(=O)(=O)c3cn(C)cn3)cccc2C1=O`, the cytotoxicity call in assay [1] and in assay [2] was “inactive” in each case. In addition, the growth inhibition call in assay [3] is “inactive”.
`C[C@@H]1CN([C@@H](C)CO)C(=O)Cc2cc(NC(=O)Nc3cccc4ccccc34)ccc2O[C@H]1CN(C)Cc1ccc2c(c1)OCO2`: the cytotoxicity call in assay [1] is “inactive”. For the same compound, the cytotoxicity call in assay [2] is “active”. Further, the growth inhibition call in assay [3] was “inactive”.
For `C[C@H]1CN([C@@H](C)CO)C(=O)c2c(c3ccccc3n2C)-c2ccccc2CO[C@H]1CN(C)Cc1ccc(-c2ccccc2)cc1`, the cytotoxicity call in assay [1] and in assay [2] was “inactive” each time. Further, the growth inhibition call in assay [3] is “inactive”.
